Test results reported in article PMC9911399, “Two distinct binding modes provide the RNA-binding protein RbFox with extraordinary sequence specificity”.
Residue numbers refer to the chain shown, from its start. Some of the results follow.

B1: GUCUCUU (DNA:RNA)
RNA: GGGAGACCGGAAUUCAGAUUGUCCGUCUCUUUUAAAUCCCGUCGUAGCCACCA
DNA 1: CAATCTGAATTCCGGTCTCCC
DNA 2: TGGTGGCTACGACGGGATT
B2: UAAUACA (DNA:RNA)
RNA: B1 RNA with G25U, U26A, C27A, C29A, U30C, U31A
DNA 1: CAATCTGAATTCCGGTCTCCC
DNA 2: TGGTGGCTACGACGGGATT
B3: GUGGAUU (DNA:RNA)
RNA: B1 RNA with C27G, U28G, C29A
DNA 1: CAATCTGAATTCCGGTCTCCC
DNA 2: TGGTGGCTACGACGGGATT
B4: CUAGGUC (DNA:RNA)
RNA: B1 RNA with G25C, C27A, U28G, C29G, U31C
DNA 1: CAATCTGAATTCCGGTCTCCC
DNA 2: TGGTGGCTACGACGGGATT
B5: AGUCUAG (DNA:RNA)
RNA: GGGAGACCGGAAUUCAGAUUGUCCAGUCUAGUUAAAUCCCGUCGUAGCCACCA
DNA 1: CAATCTGAATTCCGGTCTCCC
DNA 2: TGGTGGCTACGACGGGATT
B6: UGGUCCA (DNA:RNA)
RNA: B1 RNA with G25U, U26G, C27G, U30C, U31A
DNA 1: CAATCTGAATTCCGGTCTCCC
DNA 2: TGGTGGCTACGACGGGATT
B7: AUGGGCU (DNA:RNA)
RNA: B1 RNA with G25A, C27G, U28G, C29G, U30C
DNA 1: CAATCTGAATTCCGGTCTCCC
DNA 2: TGGTGGCTACGACGGGATT
B8: CAAUAUU (DNA:RNA)
RNA: B1 RNA with G25C, U26A, C27A, C29A
DNA 1: CAATCTGAATTCCGGTCTCCC
DNA 2: TGGTGGCTACGACGGGATT
B9: CGGCGCG (DNA:RNA)
RNA: B5 RNA with A25C, U27G, U29G, A30C
DNA 1: CAATCTGAATTCCGGTCTCCC
DNA 2: TGGTGGCTACGACGGGATT

The binders below were run against T1, RBFOX1 RRM RbFoxmut (Fox-RRM*) (Homo sapiens, UniProt Q9NWB1 109-208, R118D;E147R;N151S;E152T) (assay: EMSA; HiTS-Eq, 1 nM pool, 10 min; buffer printed only for the single-RNA assays: 10 mM Tris pH 7.5, 150 mM NaCl, 3.4 mM EDTA, 0.001% NP-40, 30 C). Conditions: tags: His6 N-terminal (pET28a); label: 5' 32P.
T1 sequence: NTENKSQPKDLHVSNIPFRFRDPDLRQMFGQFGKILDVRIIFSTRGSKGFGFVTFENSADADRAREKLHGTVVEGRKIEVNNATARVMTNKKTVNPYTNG
Procedure, shortened: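 A pool of RNA with 7 randomized nucleotides, 5′-radiolabelled and with DNA-annealed flanks, was equilibrated at 1 nM for 10 min in 50 µL with purified RbFox RRM, wild type or mutant, across increasing protein concentrations. Free RNA was separated by 8% native PAGE, excised, reverse-transcribed, barcoded by PCR and sequenced. Relative association constants were obtained from read-count changes of each RNA species versus the control reaction and normalised to the cognate motif.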
In the case of B1, the binding signal is reported as 0.0731 KA relative to UGCAUGU.
For B2, the binding signal was 0.0677 KA relative to UGCAUGU.
In the case of B3, the binding signal is reported as 0.1 KA relative to UGCAUGU.
With B4 the binding signal was 0.133 KA relative to UGCAUGU.
With B5 the binding signal was 0.102 KA relative to UGCAUGU.
B6 was tested, and the binding signal was 0.122 KA relative to UGCAUGU.
In the case of B7, the binding signal is reported as 0.116 KA relative to UGCAUGU.
For B8, the binding signal was 0.088 KA relative to UGCAUGU.
In the case of B9, the binding signal is reported as 0.155 KA relative to UGCAUGU.
